In the supplement of paper PMC8813932:
Structures can show the parent of a compound that is named as a salt. ± gives the standard deviation of the averaged measurements. The list shows a part of the results. Most values come without repeats; read them as rough.

Legend:
Experiment in all cases: log2 surviving fraction relative to plate median (drug vs vehicle, or drug+dl922-947 vs dl922-947 alone); ovarian cancer lines: OVCAR4 is platinum-sensitive while Ov4Cis resists cisplatin and Ov4Carbo carboplatin; higher = more cell survival
Details in all cases: compound concentration: 10 uM, 192 h
[1] = system: OVCAR4
[2] = system: Ov4Carbo
[3] = system: Ov4Cis
[4] = dl922-947 oncolytic adenovirus co-treatment: MOI 10
[5] = dl922-947 oncolytic adenovirus co-treatment: none

Structure (SMILES)	log2 surviving fraction [1, 4]	log2 surviving fraction [1, 5]	log2 surviving fraction [2, 4]	log2 surviving fraction [2, 5]	log2 surviving fraction [3, 4]	log2 surviving fraction [3, 5]
CC(=O)OC1CN2CCC1CC2 (configuration not stated) [Aceclidine HCl]	0.401 ± 0.45	0.748 ± 0.39	-0.624	0.207	0.483	-1.7
CO[C@H]1O[C@@H]2O[C@@]3(C)CC[C@H]4[C@H](C)CC[C@@H]([C@H]1C)[C@@]24OO3 [Artemether (SM-224)]	-0.859 ± 0.12	-1.54 ± 0.015	-1.21	0.48	0.232	-0.782
C#CCN[C@@H]1CCc2ccccc21 [Rasagiline mesylate]	-0.0363 ± 0.59	0.282 ± 0.63	-0.88	-0.777	-0.421	0.161
COc1ccc(CC2c3cc(OC)c(OC)cc3CC[N+]2(C)CCC(=O)OCCCCCOC(=O)CC[N+]2(C)CCc3cc(OC)c(OC)cc3C2Cc2ccc(OC)c(OC)c2)cc1OC (configuration not stated) [Atracurium besylate]	0.488 ± 0.42	-0.0402 ± 0.038	-0.146	0.0568	0.106	-0.0681
CS(=O)(=O)c1ccc([C@@H](O)[C@@H](CO)NC(=O)C(Cl)Cl)cc1 [Thiamphenicol (Thiophenicol)]	0.538 ± 0.33	-0.707 ± 0.45	-0.264	-2.27	-0.0066	0.335
CC(=O)O[C@@]12CO[C@@H]1C[C@@H](O)[C@@]1(C)C(=O)[C@H](O)C3=C(C)[C@@H](O)C[C@@](O)([C@@H](OC(=O)c4ccccc4)[C@H]21)C3(C)C [10-DAB (10-Deacetylbaccatin)]	-5.08 ± 0.74	-6.98 ± 3.7	-1.7	-5.96	-3.23	-4.82
NCC[C@H](O)C(=O)N[C@@H]1C[C@H](N)[C@@H](O[C@H]2O[C@H](CN)[C@@H](O)[C@H](O)[C@H]2O)[C@H](O)[C@H]1O[C@H]1O[C@H](CO)[C@@H](O)[C@H](N)[C@H]1O [Amikacin sulfate]	0.844 ± 1	0.581 ± 0.072	0.169	0.991	-0.314	0.897
Oc1c(Br)cc(Br)c2cccnc12 [Broxyquinoline]	-2.7 ± 0.21	-1.4 ± 0.25	-2.97	-0.977	-2.15	0.0368
O=S(=O)(F)Cc1ccccc1 [PMSF (Phenylmethylsulfonyl Fluoride)]	-0.384 ± 0.46	0.621 ± 0.57	-0.686	-0.722	0.136	-1.11
COCCOC(=O)C1=C(C)NC(C)=C(C(=O)OC/C=C/c2ccccc2)C1c1cccc([N+](=O)[O-])c1 (configuration not stated) [Cilnidipine]	-2.96 ± 4.7	-0.98 ± 1.2	-2.07	-1.52	-0.00237	0.0267
COc1ccc(CNc2nc(N3CCC[C@H]3CO)ncc2C(=O)NCc2ncccn2)cc1Cl [Avanafil]	-0.789 ± 0.082	-0.52 ± 1.7	-2.3	1.12	-2.22	-0.783
Cc1cccc(C)c1NC(=O)CN1CCCC1=O [Nefiracetam (Translon)]	0.657 ± 0.021	-0.226 ± 0.0077	-0.947	0.0771	0.487	-0.0657
C=CC[C@@H]1/C=C(\C)C[C@H](C)C[C@H](OC)[C@H]2O[C@@](O)(C(=O)C(=O)N3CCCC[C@H]3C(=O)O[C@H](/C(C)=C/[C@@H]3CC[C@@H](O)[C@H](OC)C3)[C@H](C)[C@@H](O)CC1=O)[C@H](C)C[C@@H]2OC [FK-506 (Tacrolimus)]	0.408 ± 0.19	-0.254 ± 0.84	0.831	-0.179	0.244	-0.265
CC(=O)[C@]1(O)Cc2c(O)c3c(c(O)c2[C@@H](O[C@H]2C[C@H](N)[C@H](O)[C@H](C)O2)C1)C(=O)c1ccccc1C3=O [Idarubicin HCl]	-9.25 ± 2.2	-9.95 ± 8.8	-7.87	-10.6	-9.67	-15.3
CCCCNc1ccc(C(=O)OCCN(C)C)cc1 [Tetracaine hydrochloride (Pontocaine)]	0.294 ± 0.23	0.318 ± 1.2	-0.396	1.02	-0.673	0.0555
Cn1c(CNc2ccc(C(=N)N)cc2)nc2cc(C(=O)N(CCC(=O)O)c3ccccn3)ccc21 [BIBR 953 (Dabigatran etexilate, Pradaxa)]	0.261 ± 0.14	-0.787 ± 0.66	0.574	0.0656	0.0188	-0.704
NCCS [Cysteamine HCl]	-0.462 ± 0.38	0.354 ± 0.35	-0.055	0.0185	-0.317	0.295
NC(=O)N/N=C/c1ccc([N+](=O)[O-])o1 [Nitrofurazone (Nitrofural)]	-0.511 ± 1.4	0.381 ± 0.046	1.36	0.797	0.614	0.864
O=C(O)C1(C(=O)O)CCC1.[NH2-].[NH2-].[Pt+2] [Carboplatin]	-1.23 ± 0.18	-0.472 ± 1.2	-0.124	1.63	-1.09	0.0934
C[C@@H]1C(=O)O[C@H]2C[C@@]34[C@H]5C[C@@H](C(C)(C)C)[C@]36[C@@H](OC(=O)[C@@H]6O)O[C@@]4(C(=O)O5)[C@]21O [Ginkgolide A]	-0.338 ± 1.4	-0.683 ± 0.13	0.769	0.0911	-0.729	-0.378
N.N.[Cl][Pt][Cl] [Cisplatin]	0.413 ± 0.19	1.42 ± 0.33	0.772	2.11	1.1	1.34

Structure (SMILES)	log2 surviving fraction [1, 4]	log2 surviving fraction [1, 5]	log2 surviving fraction [2, 4]	log2 surviving fraction [2, 5]	log2 surviving fraction [3, 4]	log2 surviving fraction [3, 5]
CCC[C@@H]1C[C@@H](C(=O)N[C@@H]([C@H]2O[C@H](SC)[C@H](OP(=O)(O)O)[C@@H](O)[C@H]2O)[C@H](C)Cl)N(C)C1 [Clindamycin phosphate]	-0.942 ± 0.81	-0.914 ± 0.36	0.293	0.393	0.434	-0.262
CC(C)/N=c1\cc2n(-c3ccc(Cl)cc3)c3ccccc3nc-2cc1Nc1ccc(Cl)cc1 [Clofazimine]	0.179 ± 0.36	-1.17 ± 1.3	-1.44	-1.13	0.0856	-1.48
CCOC(=O)[C@H](CCc1ccccc1)N[C@H]1CCCN2CCC[C@@H](C(=O)O)N2C1=O [Cilazapril monohydrate (Inhibace)]	-0.12 ± 0.62	-0.01 ± 0.56	-0.742	0.319	-0.336	-0.267
CC[C@H]1OC(=O)[C@H](C)[C@@H](O[C@H]2C[C@@](C)(OC)[C@@H](O)[C@H](C)O2)[C@H](C)[C@@H](O[C@@H]2O[C@H](C)C[C@H](N(C)C)[C@H]2O)[C@](C)(O)C[C@@H](C)/C(=N\OCOCCOC)[C@H](C)[C@@H](O)[C@]1(C)O [Roxithromycin (Roxl-150)]	0.0137 ± 0.078	0.0199 ± 0.68	-1	-0.376	0.321	0.0738
O=C(CCCCCCC(=O)Nc1ccccc1)NO [Vorinostat (SAHA)]	-5.23 ± 0.12	-9.62 ± 3.1	-4.27	-10.7	-5.23	-12.8
NS(=O)(=O)c1cc2c(cc1Cl)NCNS2(=O)=O [Hydrochlorothiazide]	-0.36 ± 0.69	0.586 ± 0.44	-0.00736	1.22	0.487	-0.0762
Cc1nnc(C(C)C)n1C1C[C@H]2CC[C@@H](C1)N2CC[C@H](NC(=O)C1CCC(F)(F)CC1)c1ccccc1 (stereo in doubt) [Maraviroc]	0.314 ± 0.13	0.954 ± 0.072	-0.628	-0.178	0.71	-0.344
CCN(CC)C(=O)/C(C#N)=C/c1cc(O)c(O)c([N+](=O)[O-])c1 [Entacapone]	0.326 ± 1.6	-0.3 ± 0.5	-0.338	0.146	-0.519	-2.06
COc1ccc(Cl)cc1C(=O)NCCc1ccc(S(=O)(=O)NC(=O)NC2CCCCC2)cc1 [Glyburide (Diabeta)]	-0.267 ± 0.054	-0.766 ± 0.075	-0.00793	0.963	-0.795	-0.241
Cc1nnc(C(=O)NC(C)(C)c2nc(C(=O)NCc3ccc(F)cc3)c(O)c(=O)n2C)o1 [Raltegravir (MK-0518)]	0.429 ± 0.43	0.879 ± 0.46	0.226	0.281	0.285	0.273
Cc1cc2c(s1)Nc1ccccc1N=C2N1CCN(C)CC1 [Olanzapine (Zyprexa)]	0.807 ± 0.41	-0.321 ± 1.1	-0.283	-0.0869	0.316	0.339
C[C@]12CC[C@H](O)CC1=CC[C@@H]1[C@@H]2CC[C@]2(C)C(c3cccnc3)=CC[C@@H]12 [Abiraterone (CB-7598)]	0.263 ± 0.85	-3.39 ± 5.2	1.14	1.3	0.792	0.601
CCOc1nc2cccc(C(=O)OCc3oc(=O)oc3C)c2n1Cc1ccc(-c2ccccc2-c2noc(=O)[nH]2)cc1 [Azilsartan Medoxomil (TAK-491)]	0.359 ± 0.029	1.24 ± 1.4	-0.185	1.2	1.13	-1.43
CCc1c2c(nc3ccc(OC(=O)N4CCC(N5CCCCC5)CC4)cc13)-c1cc3c(c(=O)n1C2)COC(=O)[C@]3(O)CC [Irinotecan HCl Trihydrate (Campto)]	-7.69 ± 0.48	-8.66 ± 4.1	-6.9	-10.4	-7.56	-11.9
Cc1ccc2c(Cl)cc(Cl)c(O)c2n1 [Chlorquinaldol]	-4.88 ± 0.13	-6.76 ± 1.8	-3.93	-8.66	-3.42	-5.56
O=C(Nc1c(Cl)cncc1Cl)c1ccc(OC(F)F)c(OCC2CC2)c1 [Roflumilast (Daxas)]	-0.164 ± 0.32	0.179 ± 0.57	1.18	-0.689	0.621	0.0847
COc1cccc2c1C(=O)c1c(O)c3c(c(O)c1C2=O)C[C@@](O)(C(C)=O)C[C@@H]3O[C@H]1C[C@H](N)[C@H](O)[C@H](C)O1 [Daunorubicin HCl (Daunomycin HCl)]	-10.9 ± 0.82	-12 ± 6.2	-9.38	-12.7	-10.3	-15.9
CCCc1cc(=O)[nH]c(=S)[nH]1 [Propylthiouracil]	0.761 ± 0.55	0.891 ± 0.14	-0.593	0.0743	1.15	-0.401
Nc1nc(N)c2nc(-c3ccccc3)c(N)nc2n1 [triamterene]	-0.646 ± 0.016	-2.84 ± 2.5	1.23	-0.128	-0.303	-0.0863
CCCCCCCCCC(=O)N[C@@H](Cc1c[nH]c2ccccc12)C(=O)N[C@H](CC(N)=O)C(=O)N[C@@H](CC(=O)O)C(=O)N[C@@H]1C(=O)NCC(=O)N[C@@H](CCCN)C(=O)N[C@@H](CC(=O)O)C(=O)N[C@H](C)C(=O)N[C@@H](CC(=O)O)C(=O)NCC(=O)N[C@H](CO)C(=O)N[C@@H]([C@H](C)CC(=O)O)C(=O)N[C@@H](CC(=O)c2ccccc2N)C(=O)O[C@@H]1C [Daptomycin]	-0.476 ± 0.11	0.0487 ± 0.72	0.106	-0.481	0.151	-0.223
CC(C)(OCc1nn(Cc2ccccc2)c2ccccc12)C(=O)O [Bindarit]	-1.45 ± 0.22	0.217 ± 0.18	-1.49	0.991	-0.564	-2.47
